Results as given in patent US11472865B2, “IgG-binding peptide, and specific modification of antibody with said peptide” (priority 2017, dated 2022).

Target: T1, Human IgG1 (Trastuzumab) (Homo sapiens, UniProt P01857)
T1 construct: purchased Chugai Pharmaceutical Co., Ltd
Test: Labeling of antibody with SG-modified peptide reagent, confirmed by SDS-PAGE (modification efficiency)
Type: biochemical
Details: Trastuzumab 10 μM, SG peptide 200 μM, acetate buffer pH 5.5, room temperature

T1 sequence (P01857 1-330 isoform P01857-1, other chains not shown): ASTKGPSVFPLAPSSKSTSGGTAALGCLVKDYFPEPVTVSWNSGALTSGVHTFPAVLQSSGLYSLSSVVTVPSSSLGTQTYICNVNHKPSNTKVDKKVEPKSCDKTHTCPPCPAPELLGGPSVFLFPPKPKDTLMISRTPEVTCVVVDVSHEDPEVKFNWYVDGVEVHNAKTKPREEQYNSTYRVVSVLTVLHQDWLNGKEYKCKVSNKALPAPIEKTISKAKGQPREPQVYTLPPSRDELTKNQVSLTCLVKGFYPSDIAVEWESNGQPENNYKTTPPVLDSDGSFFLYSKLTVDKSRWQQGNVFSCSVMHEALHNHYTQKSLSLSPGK

FNMQQQRRFYEALHDPNLNEEQRNARIRSIRDD [Peptide Z33]
IgG1 modification efficiency (yield) after 30 minutes: almost the same efficiency as αZ34C and εZ34C
